Measured values from PubChem BioAssay AID1671188 (National Center for Advancing Translational Sciences (NCATS), 2021).
“And” between values parts separate entries of the source, which are not always exact repeats. Equal values may be shown once. The campaign covered roughly 100,000 compounds. About 250 (0.25%) were called active. This list was built around the results that the source calls inconclusive (neither active nor inactive); the mix of calls is not that of the screen. Calls come from the whole dose curve; as a rule, active = well fitted inhibition curve with a large enough effect; inconclusive = small, poorly fitted or top-dose-only effect; inactive = flat fitted curve, though single readings scatter. Potencies of inconclusive entries are left out as doubtful fits. The source holds several records for some structures; these can differ, active in one and inactive in another.

biological target: Alanine aminotransferase 2 (Homo sapiens) (UniProt Q8TD30); test: Primary qHTS assay for inhibitors of Glutamate pyruvate transaminase 2 (GPT2); settings: Recombinant GPT2, coupled pyruvate oxidase/HRP Amplex Red fluorescence; activity change, negative = inhibition: at 57.7 µM (top of the series) unless noted; series mostly up to 57.7 µM; note: nearly all actives have a fitted effect of over 60% in size
Sequence of UniProt Q8TD30 (Q8TD30 whole entry, looked up): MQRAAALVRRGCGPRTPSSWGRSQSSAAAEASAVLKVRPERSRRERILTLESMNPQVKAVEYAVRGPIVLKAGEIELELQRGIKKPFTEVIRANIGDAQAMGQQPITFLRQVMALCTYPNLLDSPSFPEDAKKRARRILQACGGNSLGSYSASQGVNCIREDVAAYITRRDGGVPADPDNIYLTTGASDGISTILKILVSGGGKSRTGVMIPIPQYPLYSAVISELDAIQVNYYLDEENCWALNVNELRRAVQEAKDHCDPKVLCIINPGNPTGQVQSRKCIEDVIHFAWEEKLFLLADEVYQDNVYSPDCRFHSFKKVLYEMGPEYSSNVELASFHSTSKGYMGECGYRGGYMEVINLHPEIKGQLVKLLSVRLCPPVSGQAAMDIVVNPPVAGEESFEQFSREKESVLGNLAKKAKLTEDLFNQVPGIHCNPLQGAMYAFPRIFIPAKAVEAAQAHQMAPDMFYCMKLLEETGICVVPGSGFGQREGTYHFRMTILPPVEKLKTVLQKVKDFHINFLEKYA
Outline: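 Inhibition is scored from Amplex Red fluorescence generated when pyruvate oxidase and HRP act on pyruvate released by GPT2. Reactions contain 10ng/uL enzyme, 250uM a-KG and 2mM L-alanine and run 30 min at room temperature.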
% is set by controls: 0 for no effect and ±100 for the full control effect; potency is the fitted concentration of half-maximal effect; tags give direction and shape of the fitted curve.

Which Potency does the source give for `CCn1cc(CN2CCN(C(=O)c3cccs3)CC2)ccc1=O` here?
The Potency was inconclusive [inhibitor, full curve, poor fit].

`O=C1c2c(O)cc(O)cc2OC(c2ccc(O)c(O)c2)C1O` (configuration not stated) was tested. Which Potency did it give?
The Potency was inconclusive [inhibitor, single point].

`COc1ccc(CN2CCCCC23Cc2ccccc2CNC3=O)c(OC)n1` (configuration not stated) was tested. Which Potency did it give?
The Potency was inconclusive [inhibitor, partial curve, poor fit].

How did the “outcome” value turn out when `COc1ccc(-c2nc(C(C)C)nc3c2CN([S+](=O)([O-])c2cccc(OC)c2)CC3)cc1` was run?
Its value is “inactive”.

How did the “outcome” value turn out when `COc1ccc(C(=O)N2CCC(n3cc(-c4nc(-c5ccccc5)no4)nn3)C2)cc1OC` (configuration not stated) was run?
Its value is “inactive”.

How did the Potency turn out when `CN(C)CCCOc1nn(Cc2ccccc2)c2ccccc12` was run?
The Potency was active: 1.26 µM.

`COCC(=O)NC1CCCc2c1[nH]c1ccc(F)cc21` (configuration not stated) was tested. Which Potency did it give?
The Potency was inconclusive [inhibitor, full curve, poor fit].

How did the “outcome” value turn out when `COC1CCN(c2ccc3nnc(-c4ccccn4)n3n2)CC1` was run?
The value was “inactive [at 88.5 µM]”.

With `CCCC(=O)N1Cc2ccccc2CC2(CCN(C)C2)C1` (configuration not stated) as the compound, how does the Potency read?
Its Potency is inconclusive [inhibitor, single point].

`COc1ccc(C(=O)NC2CN(c3ccnc4ccnn34)C2)cc1` was tested. Which “activity change, negative = inhibition” value did it give?
The value was inactive: 4.43%.

Which Potency does the source give for `CC(C(=O)N1CCCN(c2cc(-c3ccc(Cl)cc3)[nH]n2)CC1)c1ccccc1` (configuration not stated) here?
The Potency was inconclusive [inhibitor, partial curve, poor fit].

How did the “outcome” value turn out when `CS(=O)(=O)N1CC2(CCN(Cc3ccccn3)C2)Cc2ccccc21` (configuration not stated) was run?
Its value is “inactive”.

`O=C(NCCc1noc(-c2ccccc2)n1)c1ccccc1` was tested. Which “activity change, negative = inhibition” value did it give?
The value was inactive: -15.2%.

`COCc1nc2nc(-c3ccccc3)c(Nc3ccncc3)cc2n1C` was tested. Which Potency did it give?
Its Potency is inconclusive [inhibitor, full curve, poor fit].

Which Potency does the source give for `CC(C)c1nc2nccc(-c3cc4ccccc4o3)n2n1` here?
The Potency was inconclusive [inhibitor, full curve, poor fit].

With `CCn1c(CN2CCCN(c3ncccn3)CC2)nnc1C1CC(N)C1` (configuration not stated) as the compound, how does the Potency read?
The Potency was inconclusive [inhibitor, partial curve, poor fit].

`CCc1nc(C(N)=O)c(Nc2ccc(N3CCC(N4CCN(C)CC4)CC3)c(OC)c2)nc1NC1CCOCC1` was tested. Which Potency did it give?
Its Potency is active: 8.91 µM and active: 8.61 µM.

`Cc1cccc(C)c1NC(=O)Cn1ccn2nc3c(c2c1=O)CCCCC3` was tested. Which Potency did it give?
The Potency was inconclusive [inhibitor, single point].

Which Potency does the source give for `CC[C@]1(O)C[C@H]2CN(CCC3C(=Nc4ccccc43)[C@@](C(=O)OC)(c3cc4c(cc3OC)N(C)[C@H]3[C@@](O)(C(N)=O)[C@H](O)[C@]5(CC)C=CCN6CC[C@]43[C@@H]65)C2)C1` (some centres not stated) here?
Its Potency is inconclusive [inhibitor, full curve, poor fit].

How did the Potency turn out when `O[C@@H]1CN(Cc2ccc(-c3ccn[nH]3)o2)CC[C@H]1c1ccc2c(c1)OCO2` was run?
Its Potency is inconclusive [inhibitor, partial curve, poor fit].

With `Cc1cc(-c2cc3c(ccn3C(C)C)c(C(=O)NCc3c(C)cc(C)[nH]c3=O)n2)ccn1` as the compound, how does the “activity change, negative = inhibition” value read?
The value was inactive: 1.86% [at 88.5 µM].

`O=C(C1CC1)N1CCC(Oc2ccccc2)C1` (configuration not stated) was tested. Which “activity change, negative = inhibition” value did it give?
Its value is inactive: -19.1%.

`C=C(C)C(=O)O[C@H]1[C@H]2C(=C)C(=O)O[C@@H]2C[C@@H](C)[C@@H]2O[C@@H]2C(=O)[C@](C)(O)[C@@H]1OC(=O)C(=C)C` was tested. Which Potency did it give?
Its Potency is inconclusive [inhibitor, full curve, poor fit].

Which Potency does the source give for `COc1ccc(CN2CCC3(CC2)CC(C(C)C)=NO3)cc1` here?
Its Potency is inconclusive [inhibitor, single point].

Which Potency does the source give for `COCCNc1nc(N)nc2c1CCN(C(=O)c1cscn1)CC2` here?
The Potency was inconclusive [inhibitor, partial curve].

With `CCc1nc2c(c(-c3ccc(O)cc3)n1)CCN(Cc1ccc(C(F)(F)F)cc1)CC2` as the compound, how does the Potency read?
The Potency was inconclusive [inhibitor, full curve, poor fit].

With `COc1nc2c(cc1CNC(=O)C1CC1(C)C)C(=O)N(C1CCCC1)C2` (configuration not stated) as the compound, how does the Potency read?
The Potency was inconclusive [inhibitor, single point].

`N#Cc1ccc(O[C@@H]2CCOC[C@H]2NC(=O)CCc2cccs2)cc1` was tested. Which Potency did it give?
The Potency was inconclusive [inhibitor, partial curve, poor fit].

Which Potency does the source give for `O=S(=O)(c1ccccc1C(F)(F)F)N1CC(c2nc(Cc3ccccc3)no2)C1` here?
The Potency was inconclusive [inhibitor, single point].

`COc1ccc(CN2CCOC[C@H]2c2ncc(C(C)(C)C)[nH]2)cc1` was tested. Which “activity change, negative = inhibition” value did it give?
Its value is inactive: -7.44% [at 88.5 µM].

How did the Potency turn out when `CC(=O)Nc1ccc(CN2C[C@H](O)C[C@H]2c2nc(-c3ccc(OC(F)(F)F)cc3)no2)cc1` was run?
Its Potency is inconclusive [inhibitor, single point].

`COCCNC(=O)c1ccc(CC2CCN(C(=O)c3n[nH]c(=O)c4ccccc34)CC2)cc1` was tested. Which Potency did it give?
Its Potency is inconclusive [inhibitor, single point].

With `COc1ccc(CN2Cc3[nH]cnc3C[C@H]2C(=O)NCc2ccccc2)c2ccccc12` as the compound, how does the Potency read?
The Potency was inconclusive [inhibitor, partial curve, poor fit].

`CC(C)(C#N)c1ccc(-c2cc(CO)ccn2)cc1` was tested. Which Potency did it give?
Its Potency is inconclusive [inhibitor, single point].

`C[S+](=O)([O-])Nc1cccc(Nc2cnc3ccc(-c4ccccc4)nn23)c1` was tested. Which Potency did it give?
Its Potency is inconclusive [inhibitor, single point].

Which Potency does the source give for `CC(=O)N1CCN(C[C@@H]2C=C(C)[C@H](Cc3nnc(-c4cccnc4)o3)C[C@H]2C(C)C)CC1` here?
The Potency was inconclusive [inhibitor, single point].

How did the Potency turn out when `CN1C(=O)CC(C(=O)O)C12CCN(Cc1cnc3c(C(=O)O)cnn3c1)CC2` (configuration not stated) was run?
The Potency was inconclusive [inhibitor, single point].

For `Cc1ccc(CN2CCCN(S(C)(=O)=O)C(c3ccccc3)CC(=O)NCC2)s1` (configuration not stated), which Potency is on record?
The Potency was inconclusive [inhibitor, single point].

With `CNS(=O)(=O)c1ccc(CN2CCCC3(C2)CN(C)C(=O)O3)cc1` (configuration not stated) as the compound, how does the Potency read?
Its Potency is inconclusive [inhibitor, single point].

With `COCC(=O)NC1CCC12CCN(C(=O)NCc1ccc(C)cc1)CC2` (configuration not stated) as the compound, how does the Potency read?
Its Potency is inconclusive [inhibitor, single point].

How did the Potency turn out when `O=C(Cc1ccccc1Cl)N1CCCN(c2cc(-c3ccccc3)[nH]n2)CC1` was run?
Its Potency is inconclusive [inhibitor, single point].

`CN(C)c1ccc(CN2CCn3c(nn(-c4ccc([N+](=O)[O-])cc4)c3=O)C2)cc1` was tested. Which “outcome” value did it give?
The value was “inactive”.

How did the “activity change, negative = inhibition” value turn out when `O=C(c1ccccc1F)N1CCN(c2nccc(Nc3ccccc3Cl)n2)CC1` was run?
Its value is inactive: -4.05%.

For `CN(Cc1ccccc1)Cc1cc(C[C@@H]2C[C@H](NC(=O)C3CCC3)C2(C)C)no1`, which Potency is on record?
Its Potency is inconclusive [inhibitor, single point].

`CN(C)C[C@@H]1CN(C)C[C@H]1NS(=O)(=O)c1ccc(Br)cc1` was tested. Which Potency did it give?
Its Potency is inconclusive [inhibitor, single point].

How did the Potency turn out when `CN1C(=O)CCC2(CNC(=O)Cc3ccccc3)CCC=C12` (configuration not stated) was run?
The Potency was inconclusive [inhibitor, single point].

`O=C(NCC1CCN(c2cc(-c3ccccc3)[nH]n2)CC1)c1n[nH]c2c1CCCC2` was tested. Which Potency did it give?
The Potency was inconclusive [inhibitor, partial curve].

With `CC1=C(C(=O)OC2CCCCC2)C(c2ccc([N+](=O)[O-])cc2)C2=C(CC(C)(C)CC2=O)N1` (configuration not stated) as the compound, how does the Potency read?
The Potency was inconclusive [inhibitor, full curve, poor fit].

`O=C1[C@@H]2C[C@@H](O)CN2C2(CN(Cc3ccccn3)C2)C(=O)N1Cc1ccccc1` was tested. Which “activity change, negative = inhibition” value did it give?
The value was inactive: -1.7% [at 88.5 µM].

With `COc1ccc(NC(=O)N[C@H]2C[C@@H](c3nc(-c4ccc(F)cc4)no3)N(C)C2)cc1` as the compound, how does the Potency read?
The Potency was inconclusive [inhibitor, full curve, poor fit].

How did the Potency turn out when `CC(C)c1ccc(NC(=O)CN2CCCc3nc(-c4ccncc4)ncc3C2=O)cc1` was run?
The Potency was inconclusive [inhibitor, partial curve, poor fit].

Which Potency does the source give for `O=C(Cc1ccc(Cl)cc1)NCCNC(=O)c1cccc(-c2ccc(C(F)(F)F)cc2)c1` here?
The Potency was inconclusive [inhibitor, single point].

For `Cc1cc(CNC(=O)c2cc(-c3ccccc3F)cc3c2OCCN3C)no1`, which “activity change, negative = inhibition” value is on record?
Its value is inactive: 1.79% [at 88.5 µM].

Which Potency does the source give for `COc1cccc(-c2ccccc2NC(=O)C2CCN(Cc3cc(OC)ccc3O)CC2)c1` here?
Its Potency is inconclusive [inhibitor, partial curve, poor fit].

How did the Potency turn out when `FC1(F)C[C@@H](c2nnc(C3CC3)o2)N(C2CCOCC2)C1` was run?
Its Potency is inconclusive [inhibitor, single point].

Which “activity change, negative = inhibition” value does the source give for `COC[C@@H]1CN(C(=O)CCc2ccccc2)C[C@H]1c1ccccn1` here?
Its value is inactive: 1.99%.

With `CCN1c2cc(C(=O)Nc3ccc(N(C)C)cc3)ccc2C(=O)N2CCCCCC21` (configuration not stated) as the compound, how does the Potency read?
The Potency was inconclusive [inhibitor, partial curve, poor fit].

How did the Potency turn out when `COc1ccc(CNC(=O)c2cc(-c3ccc(F)cc3)cc3ncn(C)c23)cc1OC` was run?
The Potency was inconclusive [inhibitor, full curve, poor fit].

For `CN1CCN(Cc2cn(Cc3ccccc3)nc2-c2ccc3c(c2)OCO3)CC1`, which Potency is on record?
Its Potency is inconclusive [inhibitor, single point].

With `NC(=O)Cc1c[nH]c2ncc(-c3cccc(CO)c3)cc12` as the compound, how does the “outcome” value read?
The value was “inactive [at 88.5 µM]”.

For `CCC1Oc2ccc(NC(=O)c3ccccc3)cc2CN(Cc2cc(F)cc(F)c2)C1=O` (configuration not stated), which “activity change, negative = inhibition” value is on record?
Its value is inactive: -17.3%.

For `Cc1ccccc1-c1nc2cnccn2c1NCCC(=O)NC1CCCCC1`, which Potency is on record?
Its Potency is inconclusive [inhibitor, single point].
